88 sequences from the supplement of paper PMC11417369 can be followed below.

The list shows a part of the results.

The test system of this assay is PF3D7_0420300 AP2 domain 1 (GST-tagged). Description: gcPBM binding intensity (ln(normalized median fluorescence intensity)); higher = stronger DNA binding. In outline: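 Binding intensity values are the highest Masliner-normalised natural-log median intensity among replicate spots of either probe orientation. The binding step lasted 1 h in 1× PBS with 1% milk, 0.2 mg/ml BSA, 0.5% salmon testes DNA and 0.03% Triton X-100, using GST-tagged P. falciparum DNA-binding domains expressed in E. coli on an Agilent 4 × 180k array of primer-extended double-stranded 36-bp intergenic genomic probes plus negative controls. Alexa488 anti-GST antibody and a 488 nm scan detected bound protein.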
As for “TATCCTATAAATAATACATGCATATATATATATATT [TGCATGCA_site638]”, the “gcPBM binding intensity (ln)” value came out at 9.14.
The figure for “TTAAGAAGTTCTAAATGTACATACATAACCACGTTA [XGTACX_site7514]” is 9.07; for “ATAATATTTTCTTCTTATTGAATGCTTTAAATTTAC [CACACA_negctrl_site1273]” it is 9.24; for “GGGAAATATTGAAACACACACGAACGCACGTATTTC [CACACA_site6258]” it is 9.54.
Consider “TTAAACCGTGGGAGCACACACACACCCCCACCCATA [CACACA_site331]”, for which the “gcPBM binding intensity (ln)” value turned out to be 10.2.
On to “ACAAATAAGTTTTGTAGTACTGTGTATATATATATA [XGTACX_site6901]”, for which the “gcPBM binding intensity (ln)” value turned out to be 9.28.
The figure for “TAATGAAATATACAGAGTACATTCTGTATATAGGAT [XGTACX_site7691]” is 9.35; for “GCATAAGAAAATAATTGTACAATTTACATACATAAA [XGTACX_site8286]” it is 9.25; for “TATATATGTATATATATAAATATATATATATATATA [TGCATGCA_negctrl_site605]” it is 8.87.
The figure for “TACTCAAAAATTAATTAGCATAATATATATAAAAAT [GTGCAC_negctrl_site613]” is 9.17; for “TATAAATATATATACACACACACATTAATACATATA [CACACA_site3488]” it is 10.2; for “TTGTACGCAAAAAAAAAAAAAAAAAAATTAAAATTT [TGCATGCA_negctrl_site586]” it is 8.63.
For “TTTTTCTCTTTAAGGTGTACAATAATACAGTAACCA [XGTACX_site300]”, the “gcPBM binding intensity (ln)” value was 8.9.
The figure for “ATATTAGTAACACAGACACACAAAAAAAAAAAAAAA [CACACA_site2176]” is 9.02; for “AGGAAAATACCTTAATGTACATAGAAAAGTAACATT [XGTACX_site8011]” it is 9.33.
The figure for “TTTTTTATTATCAAAACATGCATTTTTTAAATGGAA [TGCATGCA_site557]” is 8.76; for “CACTTAACACAAGAGTGTACACATATATATATATAT [XGTACX_site686]” it is 9.33; for GTTATTGAAAAAATAGTGCAATATAACAAAGTAAAA it is 9.41.
The value for “AAATAAAACAAACACACACACACATACACAAAAAAA [CACACA_site3849]” was 10.2.
“TAATTTCTTATGTATTGTACAAATAATATATGATAT [XGTACX_site611]”: the “gcPBM binding intensity (ln)” value turned out to be 9.1.
The value for “TATATATATATATGTACACACATATATACCTTTCAT [CACACA_site2679]” was 9.38; that for “TATATATTTCGGTGTGCACACTTTTTATTTTTATCC [CACACA_site1726]” was 9.82.
The figure for “GGAATGTAGGGTTTTACCAAAATAAAAATAACCATA [XGTACX_negctrl_site492]” is 9.19; for “ATAAAATACCTATAAACACACATATAAACAGACATA [CACACA_site7213]” it is 10; for “AATATATACAATATATGTACATATATATACACATAT [XGTACX_site4190]” it is 9.33.
The value for “CTTTTATTAAAATTCACACACATAAACTTTTATAAA [CACACA_site7027]” was 9.25.
As for “ACAATAAAAATTTATGCATGTGAATTGAAAAAAAAA [TGCATGCA_site1037]”, the “gcPBM binding intensity (ln)” value was 9.13.
Consider “CTTATATATATATCATGTACTTATGTATTTAAGAAT [XGTACX_site3307]”, for which the “gcPBM binding intensity (ln)” value is 9.12.
The value for “TTTATTGACAATTTATGTACATATAATTGAAAAATA [XGTACX_site6634]” was 8.9.
The value for “TTTGTGATATTATATTGTACCCTATATTTATTATAA [XGTACX_site4240]” was 9.56.
The value for “GAATGGACGTTAGGGGGTACGTATAAAATTTATCAA [XGTACX_site683]” was 9.48; that for “TCACCTATTTTTAACTGTACTGAAATGATATATATA [XGTACX_site1366]” was 9.31.
With “TAATGAAATTGTAGTAGTACCTTCTTATAAATAAAA [XGTACX_site6747]”, the “gcPBM binding intensity (ln)” value worked out at 8.88.
In the case of “TATAAAAAAAAAAAATATATATATATATAAATATAA [TGCATGCA_negctrl_site367]”, the “gcPBM binding intensity (ln)” value was determined as 8.98.
For “TAAGAAAAAAAAAAAAAAAAAAAAAAAAAAAAAAAA [CACACA_negctrl_site760]”, the “gcPBM binding intensity (ln)” value was found to be 8.53.
The value for “TAAAAATATTTTCATTGTACATATATATAAATATAT [XGTACX_site1123]” was 9.01; that for “ATTTGTTACGGACATGCATGCGAATCAGGGTATATA [TGCATGCA_site154]” was 9.41.
Consider “TACATATATATATATATATATATATATATCATTATG [XGTACX_negctrl_site293]”, for which the “gcPBM binding intensity (ln)” value worked out at 9.04.
The value for “TTGAGGAAATAACAGTGTACAAACAAATTATTACCA [XGTACX_site7082]” was 9.4.
The value for “ATGGTACATACATACACACACACAAAAAAAAAAAAA [CACACA_site1578]” was 9.95; that for “GTTCAATTTTTAGGAAGTACAAAAAAAAAAAAGAAA [XGTACX_site7286]” was 8.99; that for “CAAACCTATATACAAACATGCAATCCACATATTGGT [TGCATGCA_site756]” was 9.51.
The figure for “TATATTAGTGTTGACACACACAAAAAAAAAAAAAAA [CACACA_site1396]” is 9.22; for “TATATTTGTATTGTTTGTACTTATATGAATTTATAT [XGTACX_site4228]” it is 9.46.
Turning to “GACATTGATACCAGTAGTACCTATAGATGTTTGTTT [XGTACX_site5736]”, the “gcPBM binding intensity (ln)” value was 9.55.
The value for “TTATGGAATAATCACGTACACACAAGAAAAAAAAAA [CACACA_site526]” was 9.75.
For the sequence “TTATAGAAAATGGAATAGAATGGAATGGAAGAAATA [CACACA_negctrl_site1086]”, the “gcPBM binding intensity (ln)” value was determined as 9.48.
For the sequence “ATTATATATAAGAAGAGTACTGAATATGTGCAATAT [XGTACX_site4471]”, the “gcPBM binding intensity (ln)” value amounted to 9.55.
Regarding “TATATACACCCACATACACACAAATAAAAAAACACC [CACACA_site3414]”, the “gcPBM binding intensity (ln)” value was 9.98.
“AAATAATGTTTGAATTGTACACATATTTGTGTTTCT [XGTACX_site4603]”: the “gcPBM binding intensity (ln)” value was determined as 9.53.
The value for “ATGTTGCACAGTGGAAGAATTAAAAATAAATAAATA [XGTACX_negctrl_site581]” was 9.03; that for “GTGGAACGTATATTTTCACACACTCTCAAAAGTACA [CACACA_site8722]” was 9.28.
Turning to “GTGGAACATATGAACTCACACACATTTTCACTTAAA [CACACA_site3683]”, the “gcPBM binding intensity (ln)” value amounted to 9.48.
The figure for “ATGAACATATCAATTCTCAAAATAGGATGAGAGCAT [CACACA_negctrl_site230]” is 9.26; for “AATTTTTGTATTTTTAGTACTTAATTTCAAAATAAC [XGTACX_site4234]” it is 8.98; for “AATATTATAAATGTCACACATATATTCAAATATATA [CACACA_site4736]” it is 9.14.
The value for “TTTGTATATTATTTTAGTACATAACATTGAAGATAT [XGTACX_site6680]” was 9.03; that for “ATATAAGGATTAATATGTACATATATATATATATTT [XGTACX_site1390]” was 9.27.
Turning to “TATTTTGAAACTAAAAGACATAGAGAAAACAAAAAA [CACACA_negctrl_site1306]”, the “gcPBM binding intensity (ln)” value stood at 9.25.
The figure for “TAATAAATACAAAAATGTACACACATATATATATTT [XGTACX_site7430]” is 9.51; for “TATATATATATTATCACACACTCACGTTTGACAAAA [CACACA_site689]” it is 9.32.
The figure for “TTATTTATTTATTCATGTACGTGTATTTTTTAAAAA [XGTACX_site7915]” is 9.16; for “ATTGGGTACAAATACACACACATATATATATTAAGA [CACACA_site5330]” it is 9.92.
The value for “AGTGTCATATTAACACGTACATAATTATTGTAGAGA [XGTACX_site568]” was 9.15; that for “GTATTTTTACAAATTTGTACATATATATGAATATAC [XGTACX_site6717]” was 9.35; that for “GTATATAAATATATATATATATATATATCTATATTT [CACACA_negctrl_site871]” was 9.16.
Take “AAAGAAAAATTAACATGTACAAAAATTACTTGTTCA [XGTACX_site6725]”: the “gcPBM binding intensity (ln)” value stood at 9.21.
The figure for “TCTGAAACAAGAAAAAGTACACAAATTACAAAACTA [XGTACX_site7641]” is 9.44; for “AAAAAAAATTCACACTGTACAAAAGCATAAATAAAC [XGTACX_site5408]” it is 9.75.
As to “ATATTTACCTTTGTATGTACATATATAAAATATATC [XGTACX_site6367]”, the “gcPBM binding intensity (ln)” value is 9.37.
The value for “TTTTGTAAAAAGAAAAATTAGAATATATCGTATATA [XGTACX_negctrl_site617]” was 8.8; that for “TTTTCCATAAGAATTACACACAGAAAGGATAAGTAT [CACACA_site105]” was 9.72.
The figure for “AAACAGCATGGTATACCTATAAAATATATATACTAA [GTGCAC_negctrl_site39]” is 9.29.
The figure for “CTTATATTAATTATTACACACATATTTATAAATGCA [CACACA_site6501]” is 9.43; for “TATTACATACAATATTGTACATATCATATTTTGAAT [XGTACX_site2191]” it is 9.24; for ACGGAAAAAGAAAAGGTGCATATGGACACAATATAT it is 9.66.
For the sequence “ATTATTTGTTTAAATTCACACACGTATATATATTTA [CACACA_site3050]”, the “gcPBM binding intensity (ln)” value came to 9.6.
The figure for “ACATGTAAATGGAAAAGTACTAATAACTTGTATTGG [XGTACX_site5181]” is 9.36; for “ATAGAAATATTATATTGTACGAACAGTTATTAACAA [XGTACX_site2137]” it is 9.3.
Turning to “TTATTTTAATATAAAATACACACTACTATTATAAAT [CACACA_site1470]”, the “gcPBM binding intensity (ln)” value turned out to be 9.26.
The value for “TAATTATTAAAACATTGTACATTATTATAAACAATT [XGTACX_site4489]” was 9.04; that for “ATATATAAATATATTACACACTTTTTCTTTTTTTTT [CACACA_site7332]” was 9.38.
The figure for “TTTTTTTTTTTTTGATGTACATAAATTAAGAATTAT [XGTACX_site7789]” is 8.84; for “AATATATCTTTTTACGGCAACCATATTTTTCCCATT [CACACA_negctrl_site963]” it is 9.5; for “TTTTTTTTAGTATGAACACACATATATATTATAAAA [CACACA_site2935]” it is 9.14.
The figure for “TATTATGTTATATATTGTACATGTTTATTGAAACAA [XGTACX_site5605]” is 9.15; for “TTTATATGTGAAAAAAGTACAAGGAAAAAATTAAAC [XGTACX_site7269]” it is 9.55; for “TATTAACAAAATATAGCACACATAAATATATATTTA [CACACA_site8005]” it is 9.47.
